In the supplement of paper PMC10670038 one finds relative cell viability data, which are given here for 49 molecules.

Counter-ions that a name gives are not always drawn. ± gives the standard deviation of the averaged measurements. The full ranking holds about 2,000 compounds; the median of “relative cell viability vs DMSO, compound + 0.2 uM CuET” is about 1, and the lowest 2% start at about 0.25. This is one part of the list.

In this test the test system is TE10. The test is described as follows: relative cell viability vs DMSO, compound + 0.2 uM CuET (fraction); TE10 is an esophageal squamous carcinoma line; higher = less cytotoxic. To be noted: 2 µM; co-treatment: CuET (bis(diethyldithiocarbamate)copper) 0.2 uM; 48 h. The method, then: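 TE10 ESCC cells (1,000/well, 384-well plates) were treated with Selleck bioactive library compounds at 2 uM combined with 0.2 uM CuET (copper diethyldithiocarbamate) for 48 h. Viability was read by CellTiter-Glo and expressed relative to DMSO wells. Two technical replicates (A, B).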
As to `OC(Cn1cncn1)(Cn1cncn1)c1ccc(F)cc1F` [Fluconazole], the relative cell viability amounted to 1.18 ± 0.1.

For `O=C1NC(=O)C(c2cnc3ccccn23)=C1c1cn2c3c(cc(F)cc13)CN(C(=O)N1CCCCC1)CC2`, the relative cell viability is 0.97083 ± 4.9e-05. As for `Cc1ccc(S(=O)(=O)c2ccc([N+](=O)[O-])o2)cc1`, the relative cell viability turned out to be 0.175 ± 0.0036.

Regarding `COc1cc2ncnc(Sc3nnc(C)s3)c2cc1OC`, the relative cell viability is 0.639 ± 0.09.

Turning to `O=C(NC[C@H](O)CN1CCc2ccccc2C1)c1cc(NC2COC2)ncn1`, the relative cell viability turned out to be 0.956 ± 0.038.

`CC[C@H]1[C@@H](O)[C@@H]2[C@H](CC[C@]3(C)[C@@H]([C@H](C)CCC(=O)O)CC[C@@H]23)[C@@]2(C)CC[C@@H](O)C[C@@H]12` [Obeticholic Acid]: the relative cell viability came out at 0.797 ± 0.16.

As for `CNC1CCCN(c2c(F)cc3c(=O)c(C(=O)O)cn(C4CC4)c3c2OC)C1` (centres undefined) [Balofloxacin], the relative cell viability was 1.07 ± 0.17. Turning to `C[C@@H](Oc1ccc2[nH]nc(/C=C/c3cnn(CCO)c3)c2c1)c1c(Cl)cncc1Cl`, the relative cell viability worked out at 0.471 ± 0.018. Consider `CO[C@H]1/C=C/O[C@@]2(C)Oc3c(C)c(O)c4c(O)c(c(/C=N/N5CCN(C6CCCC6)CC5)c(O)c4c3C2=O)NC(=O)/C(C)=C\C=C\[C@H](C)[C@H](O)[C@@H](C)[C@@H](O)[C@@H](C)[C@H](OC(C)=O)[C@@H]1C` [Rifapentine], for which the relative cell viability came out at 0.922 ± 0.086. The value for `N=C(N)NC(=N)NCCc1ccccc1` [Phenformin HCl] was 1.02 ± 0.053. As for `CN1CCC(=C2c3ccccc3C=Cc3ccccc32)CC1` [Cyproheptadine HCl], the relative cell viability is 1.06 ± 0.016. The same measure for `CC(=O)Nc1ccc(C(=O)Nc2ccccc2N)cc1` [CI994 (Tacedinaline)]: 1.23 ± 0.26; for `COc1cc2c(Nc3ccc(NC(=O)c4ccccc4)cc3)ncnc2cc1OCCCN1CCOCC1`: 0.9438 ± 0.0089; for `O=C(O)[C@]1(Cc2cccc(Nc3nccs3)n2)CC[C@@H](Oc2cccc(Cl)c2F)CC1`: 1.02 ± 0.029. The same measure for `CC(=O)S[C@@H]1CC2=CC(=O)CC[C@]2(C)[C@H]2CC[C@@]3(C)[C@@H](CC[C@@]34CCC(=O)O4)[C@H]12` [Spironolactone]: 1.05 ± 0.066; for `C#Cc1cccc(Nc2ncnc3cc(OC)c(OCCCCCCC(=O)NO)cc23)c1`: 0.182 ± 0.024; for `CCCc1cc(C(N)=S)ccn1` [Protionamide]: 1.14 ± 0.091.

Turning to `COc1cccc2c1c(O)c(C(=O)N(C)c1ccc(C(F)(F)F)cc1)c(=O)n2C` [Tasquinimod], the relative cell viability came to 1.16 ± 0.11. Regarding `CN(C)C(=O)Nc1cccc(-c2ccc(N(C)C)cc2)c1` [Atglistatin], the relative cell viability was found to be 1.1 ± 0.063. For the molecule `C[C@@]1(C(=O)Nc2ccc(F)nc2)CCCN1c1nc(Nc2cc(C3CC3)n[nH]2)c2cccn2n1`, the relative cell viability stood at 0.567 ± 0.15.

`Clc1ccc(CCC(Cn2ccnc2)Sc2c(Cl)cccc2Cl)cc1` (centres undefined) [Butoconazole nitrate]: the relative cell viability is 0.613 ± 0.089. In the case of `N#Cc1ccc(C(c2ccc(C#N)cc2)n2cncn2)cc1` [Letrozole], the relative cell viability is 1.02 ± 0.16. As to `O=C(Nc1cccc(Cl)c1)c1ccccn1`, the relative cell viability came out at 1.24 ± 0.1. On to `CCOC(=O)[C@@H](N)Cc1ccc(-c2cc(O[C@H](c3ccc(Cl)cc3-n3ccc(C)n3)C(F)(F)F)nc(N)n2)cc1` [Telotristat Etiprate (LX 1606 Hippurate)], for which the relative cell viability is 0.634 ± 0.087. On to `N=C(NCCCCCCNC(=N)NC(=N)Nc1ccc(Cl)cc1)NC(=N)Nc1ccc(Cl)cc1` [Chlorhexidine HCl], for which the relative cell viability came out at 1.15 ± 0.21. Consider `COc1c2occc2cc2ccc(=O)oc12` [Methoxsalen], for which the relative cell viability came out at 0.968 ± 0.056. In the case of `CC(C)CC(N)=O` [Isovaleramide], the relative cell viability turned out to be 1.29 ± 0.042. The same measure for `CN1CCN(C2=Nc3ccccc3Oc3ccc(Cl)cc32)CC1` [Loxapine Succinate]: 0.969 ± 0.015; for `Cc1nnc(C(=O)NC(C)(C)c2nc(C(=O)NCc3ccc(F)cc3)c(O)c(=O)n2C)o1` [Raltegravir (MK-0518)]: 0.845 ± 0.0038. As to `COC(=O)c1ccc2c(c1)nc(NC(=O)c1ccccc1)n2CCCc1ccccc1`, the relative cell viability is 0.796 ± 0.021. For `c1ccc(NCc2ccc(CNc3ccccn3)cc2)nc1`, the relative cell viability came to 1.05 ± 0.03.

Take `O=C(NC[C@H]1CN(c2ccc(N3CCOCC3=O)cc2)C(=O)O1)c1ccc(Cl)s1` [Rivaroxaban]: the relative cell viability is 0.809 ± 0.38.

With `C[C@@H]1C[C@H]2[C@@H]3C[C@H](F)C4=CC(=O)C=C[C@]4(C)[C@@]3(F)[C@@H](O)C[C@]2(C)[C@@]1(O)C(=O)CO` [Flumethasone], the relative cell viability turned out to be 0.876 ± 0.027. As to `Cc1cc2c(cc1CC(=O)c1sccc1S(=O)(=O)Nc1onc(C)c1Cl)OCO2` [Sitaxentan sodium], the relative cell viability stood at 1.37 ± 0.41. With `COc1ccc(-c2ccc3c(N4CCOC[C@@H]4C)nc(N4CCOC[C@@H]4C)nc3n2)cc1CO`, the relative cell viability was 0.659 ± 0.037. The value for `CC(C)C[C@H](NP(=O)(O)O[C@@H]1O[C@@H](C)[C@H](O)[C@@H](O)[C@H]1O)C(=O)N[C@@H](Cc1c[nH]c2ccccc12)C(=O)O` [Phosphoramidon Disodium Salt] was 1.22 ± 0.018; that for `COc1c(C)c(C(=O)c2ccc(N)c(C(=O)O)c2)n2ccccc12` was 1.28 ± 0.018; that for `Cc1c(C(=O)Nc2ccc(Oc3ccnc4[nH]cc(-c5ccccc5)c34)c(F)c2)c(=O)n(-c2ccc(F)cc2)n1C` was 0.94 ± 0.061. Regarding `CN[C@@H](C)C(=O)N[C@H](C(=O)N1CCC[C@H]1c1nc(C(=O)c2ccc(F)cc2)cs1)C1CCCCC1`, the relative cell viability was determined as 0.682 ± 0.074.

As to `CCCCCCCCCCCCCCCC(=O)OCC(O)C1OC(=O)C(O)=C1O` [L-Ascorbyl 6-palmitate], the relative cell viability is 1.02 ± 0.04. As for `CCCc1cc(C)[nH]c(=O)c1CNC(=O)c1cc(-c2ccc(N3CCN(C(C)C)CC3)nc2)cc2c1cnn2C(C)C`, the relative cell viability stood at 1.06 ± 0.06. As to `NC(=O)c1ccc(N(C(N)=O)c2c(F)cccc2F)nc1-c1ccc(F)cc1F`, the relative cell viability turned out to be 1.21 ± 0.051. The value for `CC(=O)Oc1ccccc1C(=O)Nc1ncc([N+](=O)[O-])s1` [Nitazoxanide] was 0.893 ± 0.026. As to `CC(C)(C)C(=O)Nc1ccc2c(c1)C(=O)C(=O)c1ccccc1-2`, the relative cell viability is 0.026 ± 0.0042. Consider `Nc1c(CC(=O)O)cccc1C(=O)c1ccccc1` [Amfenac Sodium Monohydrate], for which the relative cell viability was 1.121 ± 0.0097. As to `COc1ccc([C@@H]2CC(=O)c3c(O)cc(O)cc3O2)cc1O` [Hesperetin], the relative cell viability stood at 1.1 ± 0.052.

Consider `CCOC(=O)c1[nH]c2cc(Cl)ccc2c1C(C(=O)NC(C)(C)C)N(C=O)Cc1ccc(Cl)cc1` (centres undefined), for which the relative cell viability worked out at 1.07 ± 0.056.

`CCCCN1CCCCC1C(=O)Nc1c(C)cccc1C` (centres undefined) [Bupivacaine HCl]: the relative cell viability was 1.03 ± 0.16. Consider `C=C1/C(=C\C=C2/CCC[C@]3(C)[C@@H]([C@H](C)/C=C/[C@H](C)C(C)C)CC[C@@H]23)C[C@@H](O)C[C@@H]1O` [Doxercalciferol], for which the relative cell viability was 1.123 ± 0.0018.
